{"source": "the supplement of paper PMC4604168 (melanoma cell lines)", "note": "The list shows a part of the results. Most values come without repeats; read them as rough.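 Also: cells treated in 1,536-well plates, then fixed and DAPI-stained, with nuclei counted from automated high-throughput microscope images.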"}
{"system": "WM1716", "experiment": "cell count relative to DMSO control; higher = more viable cells", "details": "library dose: standard library concentration; 72 h", "units": {"cell count": "%"}}
{"smiles": "Clc1ccc(Nc2nnc(Cc3ccncc3)c3ccccc23)cc1", "note": "[vatalanib] + COc1ccc(COc2ccc(Cc3cnc(N)nc3N)cc2OC)cc1 [GW2580] (first compound 10 µM, partner dose 5 µM)", "cell count": 74.6}
{"smiles": "COCC[n+]1c2c(n(Cc3cnccn3)c1C)C(=O)c1ccccc1C2=O", "note": "+ CN(C)S(=O)(=O)c1ccc2c(c1)/C(=C/c1cc3c([nH]1)CCCC3)C(=O)N2 [SU6656] (first compound 0.002 µM, partner dose 2 µM)", "cell count": 45.5}
{"smiles": "Clc1ccc(Nc2nnc(Cc3ccncc3)c3ccccc23)cc1", "note": "[vatalanib] + Cn1cc(/C=C2\\C(=O)Nc3cccnc32)c2ccccc21 [GW441756] (first compound 10 µM, partner dose 2 µM)", "cell count": 109}
{"system": "WM1745", "experiment": "cell count relative to DMSO control; higher = more viable cells", "details": "library dose: standard library concentration; 72 h", "units": {"cell count": "%"}}
{"smiles": "OCc1c[nH]c2ccccc12", "note": "[Indole-3-carbinol] + NCC(=O)Nc1ccc(-n2nc(C(F)(F)F)cc2-c2ccc3c(ccc4ccccc43)c2)cc1 [OSU03012] (first compound 4 µM, partner dose 5 µM)", "cell count": 79.3}
{"smiles": "Nc1cccc2c1CN(C1CCC(=O)NC1=O)C2=O", "note": "(stereo unspecified) [lenalidomide] + COc1cc2c(Oc3ccc4[nH]c(C)cc4c3F)ncnc2cc1OCCCN1CCCC1 [cediranib] (first compound 5 µM, partner dose 2 µM)", "cell count": 74.1}
{"smiles": "COCC[n+]1c2c(n(Cc3cnccn3)c1C)C(=O)c1ccccc1C2=O", "note": "+ CN(C)S(=O)(=O)c1ccc2c(c1)/C(=C/c1cc3c([nH]1)CCCC3)C(=O)N2 [SU6656] (first compound 0.002 µM, partner dose 2 µM)", "cell count": 53.8}
{"system": "WM3526", "experiment": "cell count relative to DMSO control; melanoma cells; higher = more viable cells", "details": "library dose: standard library concentration; 72 h", "units": {"cell count": "%"}}
{"smiles": "Clc1ccc(Nc2nnc(Cc3ccncc3)c3ccccc23)cc1", "note": "[vatalanib] + O=S(=O)(c1ccccc1)N(CC(F)(F)F)c1ccc(C(O)(C(F)(F)F)C(F)(F)F)cc1 [T0901317] (first compound 10 µM, partner dose 7 µM)", "cell count": 55.7}
{"smiles": "Clc1ccc(Nc2nnc(Cc3ccncc3)c3ccccc23)cc1", "note": "[vatalanib] + Oc1cc(-c2nc(-c3ccccc3)[nH]c2-c2ccncc2)ccc1Cl [L779450] (first compound 10 µM, partner dose 1 µM)", "cell count": 44.5}
{"smiles": "OCc1c[nH]c2ccccc12", "note": "[Indole-3-carbinol] + O=S(=O)(c1ccccc1)N(CC(F)(F)F)c1ccc(C(O)(C(F)(F)F)C(F)(F)F)cc1 [T0901317] (first compound 4 µM, partner dose 7 µM)", "cell count": 106}
{"smiles": "Clc1ccc(Nc2nnc(Cc3ccncc3)c3ccccc23)cc1", "note": "[vatalanib] + COC(=O)c1sccc1S(=O)(=O)Nc1ccc(Nc2ccccc2)cc1OC [GSK0660] (first compound 10 µM, partner dose 5 µM)", "cell count": 73.9}
{"smiles": "OCc1c[nH]c2ccccc12", "note": "[Indole-3-carbinol] + NCC(=O)Nc1ccc(-n2nc(C(F)(F)F)cc2-c2ccc3c(ccc4ccccc43)c2)cc1 [OSU03012] (first compound 4 µM, partner dose 5 µM)", "cell count": 47.8}
{"smiles": "Clc1ccc(Nc2nnc(Cc3ccncc3)c3ccccc23)cc1", "note": "[vatalanib] + CCN(CC)CCCCNc1ncc2cc(-c3cc(OC)cc(OC)c3)c(NC(=O)NC(C)(C)C)nc2n1 [PD173074] (first compound 10 µM, partner dose 0.5 µM)", "cell count": 68.8}
{"smiles": "OCc1c[nH]c2ccccc12", "note": "[Indole-3-carbinol] + CC(C)CCN1c2nc(Nc3cc(F)c(O)c(F)c3)ncc2N(C)C(=O)C1C [BID1870] (first compound 4 µM, partner dose 1 µM)", "cell count": 73}
{"smiles": "OCc1c[nH]c2ccccc12", "note": "[Indole-3-carbinol] + O=C(O)C(=O)Nc1sc2c(c1C(=O)O)CCNC2 [TCS401] (first compound 4 µM, partner dose 8.33333 µM)", "cell count": 88.8}
{"smiles": "Clc1ccc(Nc2nnc(Cc3ccncc3)c3ccccc23)cc1", "note": "[vatalanib] + COc1cc(N2CCC(N3CCN(C)CC3)CC2)ccc1Nc1ncc(Cl)c(Nc2ccccc2S(=O)(=O)C(C)C)n1 [NVP-TAE684] (first compound 10 µM, partner dose 0.4 µM)", "cell count": 53.2}
{"smiles": "OCc1c[nH]c2ccccc12", "note": "[Indole-3-carbinol] + COc1ccc2c(c1)CCC1C2CCC2(C)C(NCCCCCCN3C(=O)C=CC3=O)CCC12 [U73122] (first compound 4 µM, partner dose 2 µM)", "cell count": 79.6}
